From the supplement of paper PMC11283458
This is one part of the list. Many values rest on one well or one pass, so single values are uncertain.

Each compound was assayed on Mast2 alternative exon (endogenous) (assay: delta PSI of alternative exon relative to 0.4% DMSO control (RT-PCR) (percentage points); higher = more exon inclusion). Conditions: concentration: not stated (optimised per compound); Neuro-2a.
Procedure: (§1)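 Reads PSI of the Mef2d reporter microexon and of endogenous mouse neural alternative exons. dPSI is relative to the 0.4% DMSO control, single replicate.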
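Note: exons read include endogenous Mef2d, Mast2, Ergic3 and Trappc9 microexons plus the longer neural-regulated Zdhhc20, Mgrn1 and Asph cassette exons, alongside the reporter microexon.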

| SMILES | delta PSI of alternative exon |
| --- | --- |
| O=C(NCCNc1nccc(C(F)(F)F)n1)Nc1ccccc1Cl | -21.6 |
| Nc1ncn(C2OC(CO)C(O)C2O)c(=O)n1 (configuration not stated) [Azacytidine-5] | -16.3 |
| CCOC(=O)c1cnn2c1nc(N1CCCC1)c1ccccc12 | 0.562 |
| O=C(Nc1cccc(Cl)c1)Nc1ccc(Sc2ccccc2)nc1Sc1ccccc1 | 0.596 |
| COc1cc(OC)c(/C=C2/C(=O)Nc3ccccc32)c(OC)c1 | -6.78 |
| COc1ccc(NC(=O)CSC(=O)c2c(-c3c(Cl)cccc3Cl)noc2C)cc1 | -9.19 |
| N[C@@H](CSC(c1ccccc1)(c1ccccc1)c1ccccc1)C(=O)O [S-Trityl-L-cysteine] | -11.6 |
| CCCCCCc1ccccc1NC(=O)Nc1cccnc1 | 0.757 |
| COCCCNC(=S)N/N=C/c1cccc(OC)c1O | 11.3 |
| Cc1onc(-c2c(Cl)cccc2Cl)c1C(=O)SCC(=O)Nc1ccc(Cl)cc1 | -2.25 |
| CC(=O)c1sc(-c2ccccc2)cc1NS(=O)(=O)c1ccc(C)c(Cl)c1 | 1.41 |
| O=[N+]([O-])c1ccc(N2CCCN(C(=S)Nc3ccc(Cl)cc3Cl)CC2)nc1 | 6.72 |
| N#CC1(C#N)C(C#N)(C#N)C12CCCCC2 | -7.43 |
| COc1cc2ncn(-c3cc(OCc4ccccc4C(F)(F)F)c(C(N)=O)s3)c2cc1OC | -6.07 |
| C=CCn1c(N)c(C(=O)NN=Cc2cccs2)sc1=S | 0.308 |
| CCN(CC)C(=S)NC(=S)c1ccc(C)cc1 | 0.553 |
| N#CC1(C#N)C(c2ccc(Br)s2)C(C(=O)c2ccccc2)N2c3ccccc3C=CC21 (configuration not stated) | -0.914 |
| Nc1nc(=S)c2ncn([C@@H]3O[C@H](CO)[C@@H](O)[C@H]3O)c2[nH]1 [Thioguanosine] | -30.5 |

The compounds below were run on Trappc9 microexon (endogenous) in the same assay as above. Conditions: concentration: not stated (optimised per compound); Neuro-2a.
Procedure: as §1

| SMILES | delta PSI of alternative exon |
| --- | --- |
| O=C(C=C(C(=O)c1ccccc1)c1ccccc1)c1ccc2c(c1)OCCO2 | 2.6 |
| O=C(NCCNc1nccc(C(F)(F)F)n1)Nc1ccccc1Cl | -5.22 |
| Nc1ncn(C2OC(CO)C(O)C2O)c(=O)n1 (configuration not stated) [Azacytidine-5] | 0.747 |
| O=c1c(Cc2ccccc2Cl)c(-c2ccccc2)oc2ccccc12 | -1.31 |
| CCOC(=O)c1cnn2c1nc(N1CCCC1)c1ccccc12 | -1.29 |
| O=C(Nc1cccc(Cl)c1)Nc1ccc(Sc2ccccc2)nc1Sc1ccccc1 | -1.51 |
| CNC(=S)N/N=C/c1ccccc1O | -1.03 |
| Nc1nc(Nc2ccc(S(N)(=O)=O)cc2)nn1C(=S)Nc1c(F)cccc1F [Cdk1/2 Inhibitor III] | 1.83 |
| COc1cc(OC)c(/C=C2/C(=O)Nc3ccccc32)c(OC)c1 | 0.0849 |
| COc1ccc(NC(=O)CSC(=O)c2c(-c3c(Cl)cccc3Cl)noc2C)cc1 | -1.83 |
| N[C@@H](CSC(c1ccccc1)(c1ccccc1)c1ccccc1)C(=O)O [S-Trityl-L-cysteine] | -1.06 |
| CCCCCCc1ccccc1NC(=O)Nc1cccnc1 | -1.31 |
| COCCCNC(=S)N/N=C/c1cccc(OC)c1O | -1.68 |
| Cc1onc(-c2c(Cl)cccc2Cl)c1C(=O)SCC(=O)Nc1ccc(Cl)cc1 | -0.43 |
| CC(=O)OC1(C(=O)/C=C/c2ccccc2)CCCCC1 | -4.1 |
| CC(=O)c1sc(-c2ccccc2)cc1NS(=O)(=O)c1ccc(C)c(Cl)c1 | 0.0668 |

| SMILES | delta PSI of alternative exon |
| --- | --- |
| COc1ccc(C(=O)C=C(C(=O)c2ccccc2)c2ccccc2)cc1CN1CCOCC1 | -0.969 |
| Cc1onc(-c2c(Cl)cccc2Cl)c1C(=O)SCC(=O)Nc1ccc(F)cc1 | -2.21 |
| CC(=O)Nc1ccc([C@H](C)C(=O)Nc2ncc(C(C)C)s2)cc1 | 2.8 |
| O=C(C=c1[nH]c(=O)c(=Cc2ccccc2O)s1)c1cccs1 | -0.208 |
| O=[N+]([O-])c1ccc(N2CCCN(C(=S)Nc3ccc(Cl)cc3Cl)CC2)nc1 | 0.172 |
| Cc1cc(NC(=O)Nc2cc(Cl)cc(Cl)c2)on1 | -2.12 |
| N#CC1(C#N)C(C#N)(C#N)C12CCCCC2 | 1.42 |
| O=C(Nc1ccc(-n2nc(C(F)(F)F)cc2-c2cccs2)cc1)c1cccs1 | -1.58 |
| Nc1ccc(S(=O)(=O)Nc2cccc(C(F)(F)F)c2)cc1 | -1.08 |
| COc1cc2ncn(-c3cc(OCc4ccccc4C(F)(F)F)c(C(N)=O)s3)c2cc1OC | 0.684 |
| C=CCn1c(N)c(C(=O)NN=Cc2cccs2)sc1=S | -2 |
| CCN(CC)C(=S)NC(=S)c1ccc(C)cc1 | -3.6 |
| CC(C)(C)c1ccc2cc(C#N)c(C#N)cc2c1 | 1.48 |
| O=C(NCCNc1ccc(C(F)(F)F)cn1)Nc1ccccc1Cl | -0.969 |
| N#CC1(C#N)C(c2ccc(Br)s2)C(C(=O)c2ccccc2)N2c3ccccc3C=CC21 (configuration not stated) | -2.86 |
| Nc1nc(=S)c2ncn([C@@H]3O[C@H](CO)[C@@H](O)[C@H]3O)c2[nH]1 [Thioguanosine] | 0.445 |

Each compound was assayed on Zdhhc20 alternative exon (endogenous) in the same assay as above. Conditions: concentration: not stated (optimised per compound); Neuro-2a.
Procedure: as §1

| SMILES | delta PSI of alternative exon |
| --- | --- |
| O=C(C=C(C(=O)c1ccccc1)c1ccccc1)c1ccc2c(c1)OCCO2 | -3.55 |
| O=C(NCCNc1nccc(C(F)(F)F)n1)Nc1ccccc1Cl | -17.6 |
| Nc1ncn(C2OC(CO)C(O)C2O)c(=O)n1 (configuration not stated) [Azacytidine-5] | -12 |
| O=c1c(Cc2ccccc2Cl)c(-c2ccccc2)oc2ccccc12 | 1.92 |
| CCOC(=O)c1cnn2c1nc(N1CCCC1)c1ccccc12 | 1.32 |
| O=C(Nc1cccc(Cl)c1)Nc1ccc(Sc2ccccc2)nc1Sc1ccccc1 | 1.38 |
| CNC(=S)N/N=C/c1ccccc1O | 4.36 |
| Nc1nc(Nc2ccc(S(N)(=O)=O)cc2)nn1C(=S)Nc1c(F)cccc1F [Cdk1/2 Inhibitor III] | 14.5 |
| COc1cc(OC)c(/C=C2/C(=O)Nc3ccccc32)c(OC)c1 | -3.56 |
| COc1ccc(NC(=O)CSC(=O)c2c(-c3c(Cl)cccc3Cl)noc2C)cc1 | -11.6 |
| N[C@@H](CSC(c1ccccc1)(c1ccccc1)c1ccccc1)C(=O)O [S-Trityl-L-cysteine] | -7.11 |
| CCCCCCc1ccccc1NC(=O)Nc1cccnc1 | 2.59 |
| COCCCNC(=S)N/N=C/c1cccc(OC)c1O | 9.57 |
| Cc1onc(-c2c(Cl)cccc2Cl)c1C(=O)SCC(=O)Nc1ccc(Cl)cc1 | -5.45 |
| CC(=O)OC1(C(=O)/C=C/c2ccccc2)CCCCC1 | -9.17 |
| CC(=O)c1sc(-c2ccccc2)cc1NS(=O)(=O)c1ccc(C)c(Cl)c1 | 0.0018 |

| SMILES | delta PSI of alternative exon |
| --- | --- |
| COc1ccc(C(=O)C=C(C(=O)c2ccccc2)c2ccccc2)cc1CN1CCOCC1 | -7.35 |
| Cc1onc(-c2c(Cl)cccc2Cl)c1C(=O)SCC(=O)Nc1ccc(F)cc1 | -10.8 |
| CC(=O)Nc1ccc([C@H](C)C(=O)Nc2ncc(C(C)C)s2)cc1 | -9.03 |
| O=C(C=c1[nH]c(=O)c(=Cc2ccccc2O)s1)c1cccs1 | -5.98 |
| O=[N+]([O-])c1ccc(N2CCCN(C(=S)Nc3ccc(Cl)cc3Cl)CC2)nc1 | 6.13 |
| Cc1cc(NC(=O)Nc2cc(Cl)cc(Cl)c2)on1 | -0.324 |
| N#CC1(C#N)C(C#N)(C#N)C12CCCCC2 | -9.17 |
| O=C(Nc1ccc(-n2nc(C(F)(F)F)cc2-c2cccs2)cc1)c1cccs1 | 2.42 |
| Nc1ccc(S(=O)(=O)Nc2cccc(C(F)(F)F)c2)cc1 | 4.2 |
| COc1cc2ncn(-c3cc(OCc4ccccc4C(F)(F)F)c(C(N)=O)s3)c2cc1OC | -2.86 |
| C=CCn1c(N)c(C(=O)NN=Cc2cccs2)sc1=S | 1.5 |
| CCN(CC)C(=S)NC(=S)c1ccc(C)cc1 | -8.97 |
| CC(C)(C)c1ccc2cc(C#N)c(C#N)cc2c1 | -2.95 |
| O=C(NCCNc1ccc(C(F)(F)F)cn1)Nc1ccccc1Cl | -19.7 |
| N#CC1(C#N)C(c2ccc(Br)s2)C(C(=O)c2ccccc2)N2c3ccccc3C=CC21 (configuration not stated) | -7.98 |
| Nc1nc(=S)c2ncn([C@@H]3O[C@H](CO)[C@@H](O)[C@H]3O)c2[nH]1 [Thioguanosine] | -11.4 |
